# Among all 45,000 compounds or so, about 200 (0.44%) were called active. Not shown: some 7% with an inconclusive outcome. Calls come from the whole dose curve; as a rule, active = well fitted activation curve with a large enough effect; inconclusive = small, poorly fitted or top-dose-only effect; inactive = no such curve, though single readings can be large or run the other way. This is one part of the list.
# Experiment: qHTS of TDP-43 Inhibitors: NCGC Sytravon Library Screen; note: 0% is about no effect; nearly all actives have a fitted effect of over 55% in size
# Details: yeast TDP-43 toxicity rescue, BacTiter-Glo growth, 24 h; series mostly up to 46.1 µM; growth rescue (activation): at the top concentration
# Method in brief: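 TDP-43-expressing yeast, pregrown in raffinose, seeded at OD600 0.02 in galactose medium with compound for 24 hr at 30 deg C. Growth read by BacTiter-Glo luminescence, so rescue of toxicity appears as activation.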
row,Structure (SMILES),growth rescue (activation)
1,COc1ccccc1N(C)S(=O)(=O)c1ccc(C(=O)N2CCCc3ccccc32)cc1,inactive: 19.6%
2,Cc1ccc(C(=O)NNC(=O)c2n[nH]c(=O)c3ccccc23)cc1C,inactive: -13.6%
3,CCn1ncc(Br)c1C(=O)Nc1ccc(C(C)C)cc1,inactive: 24.4%
4,CCOc1ccccc1N1CCN(CC(O)COC2CCCc3ccccc32)CC1 (stereo not drawn),inactive: -6.32%
5,O=C(N/C(=C/c1cccs1)C(=O)N1CCOCC1)c1ccco1,inactive: -28.1%
6,CC(C)C(=O)N=C1SC2CS(=O)(=O)CC2N1Cc1ccc(Cl)cc1 (stereo not drawn),inactive: 5.32%
7,CCOc1ccc(Cl)cc1S(=O)(=O)N1CCC(C(=O)NCc2ccco2)CC1,inactive: 12%
8,CC1(C(=O)NCc2ccccc2)Cc2c(-c3ccc(C(N)=O)cc3)ccnc2O1 (stereo not drawn),inactive: -3.93%
9,COc1ccc(CN(Cc2ccc(C(=O)O)cc2)C(=S)Nc2ccccc2C)cc1OC,inactive: 3.97%
10,CCCCn1c(N)c(NCCC)c(=O)[nH]c1=O,inactive: 10.6%
11,CCn1c(CC(=O)Nc2ccc(Cl)c(Cl)c2)nnc1SCc1ccc(C)cc1,inactive: 14.2%
12,Cc1ccc(F)c(CNC(=O)C2(C)CCCN2C(=O)C(C)C)c1F (stereo not drawn),inactive: 1.48%
13,COc1ccc(CNC(=O)CN(Cc2ccccc2)C(=O)CCC(=O)Nc2ccccn2)cc1,inactive: -1.07%
14,CC1(C)N=C(N)N=C(N)N1c1ccc(Oc2ccc(Cl)cc2)c(Cl)c1,inactive: -6.66%
15,CN1CCN(C(=O)CCc2nc3ccccc3c(=O)[nH]2)CC1,inactive: 23.5%
16,CCN(CC)S(=O)(=O)c1cc(C(=O)Nc2cc(C)on2)ccc1Cl,inactive: 0.594%
17,CCn1cc(C(=O)OCC(=O)Nc2cccc(C)c2)c(=O)c2ccc(C)nc21,inactive: 36.2%
18,O=C(NCC1CCCC(CNC(=O)Nc2ccc(Cl)cn2)C1)Nc1ccc(Cl)cn1 (stereo not drawn),inactive: 20.7%
19,Cn1c(=O)c([N+](=O)[O-])c(NCc2ccc3c(c2)OCO3)c2ccccc21,inactive: -3.01%
20,CC(C)(C)NC(=O)C(=O)NNC(=O)COc1ccccc1,inactive: 24.2%
21,O=C(N/C(=C\c1ccc([N+](=O)[O-])cc1)C(=O)N1CCOCC1)c1ccco1,inactive: 7.18%
22,Cc1c(C(=O)Nc2nonc2-c2ccc(F)cc2)oc2ccc(F)cc12,inactive: -6.81%

row,Structure (SMILES),growth rescue (activation)
1,O=c1[nH]cnc2scc(-c3ccc(Br)cc3)c12,inactive: 4.05%
2,COc1cc(C)ccc1Oc1nc(-c2ccccc2O)nc2ccccc12,inactive: -22.5%
3,CC(C)n1cc(CN2CCCC(CO)(Cc3cccc(Cl)c3)C2)cn1 (stereo not drawn),inactive: -2.02%
4,Cn1c(=O)c(C(=O)CN2CCN(S(=O)(=O)c3ccccc3)CC2)c(N)n(Cc2ccccc2)c1=O,inactive: 6.98%
5,CCC(C)C(NC(=O)c1ccc(Cl)cc1)C(=O)Nc1cccnc1 (stereo not drawn),inactive: -2.8%
6,CN(C)CCCNC(=O)c1cc(C(=O)Cc2ccccc2)c[nH]1,inactive: -3.33%
7,COc1ccc(S(=O)(=O)N(C)CC(=O)Nc2ccccc2C(F)(F)F)cc1OC,inactive: 7.37%
8,Oc1ccc(C=Nc2cccc3ccccc23)c(O)c1,inactive: 9.08%
9,CCCCn1nnc(NC(=O)c2ccco2)n1,inactive: -33%
10,CN(C)S(=O)(=O)c1cc(NC(=O)COC(=O)CC2Sc3ccccc3NC2=O)ccc1Cl (stereo not drawn),inactive: 12.5%
11,CCCn1nnnc1NCc1ccccc1OCC,inactive: -12.4%
12,CCc1ccc(Nc2nnc(SC(C)C(=O)NC3CC3)s2)cc1 (stereo not drawn),inactive: 15.3%
13,COc1cccc(/C=C/C(=O)NCCc2ccc3c(c2)OCCO3)c1,inactive: 6.73%
14,C/C(CC(=O)NC(C)C)=N\NC(=O)C(c1ccccc1)c1ccccc1,inactive: 2.36%
15,COc1cc(CCC(=O)OCC(=O)Nc2ccc(F)c(F)c2)cc(OC)c1OC,inactive: -19%
16,O=C(Oc1ccc(C(=S)N2CCOCC2)cc1)c1cc([N+](=O)[O-])cc([N+](=O)[O-])c1,inactive: 13.3%
17,COC(=O)Cn1c(=O)c2cccn2c2cccnc21,inactive: 16%
18,CC(C)CCC(CCNCc1ccccn1)c1ccc(Cl)cc1 (stereo not drawn),inactive: 16.6%
19,Cc1ccsc1CN(C(=O)c1oc2cc(Br)ccc2c1C)C1CCS(=O)(=O)C1 (stereo not drawn),inactive: 13.6%
20,O=C(CSc1nnc(NC(=O)c2ccccc2F)s1)NC1CCCC1,inactive: 18.5%
21,COc1ccc(C)cc1N(C(=O)c1snc(C(N)=O)c1N)C(C(=O)NC1CCCCC1)c1ccc(C)o1 (stereo not drawn),inactive: 9.51%
22,O=C(NCc1cccs1)c1ccc2sc([C@@H]3O[C@H](CO)[C@H](O)[C@H](O)[C@H]3O)nc2c1,inactive: 6.49%

row,Structure (SMILES),growth rescue (activation)
1,COc1cc(CNC(=O)Nc2cccn3nc(COCCO)nc23)cc(OC)c1OC,inactive: -5.51%
2,CCOc1ccc(/C(C)=N/N2C(=O)C(CC(=O)Nc3ccc(OC)cc3[N+](=O)[O-])SC2=Nc2cccc(C)c2C)cc1 (stereo not drawn),inactive: 14.2%
3,COc1cccc(CN2CCC2(C)C(=O)Nc2cccc(NS(C)(=O)=O)c2)c1OC (stereo not drawn),inactive: -7.67%
4,O=C(OCCN=C1NS(=O)(=O)c2ccccc21)c1ccccc1F,inactive: -0.814%
5,Nc1c(C(=O)Nc2ccccc2)nnn1Cc1ccc(F)cc1Cl,inactive: 0.0407%
6,COc1ccc(CC(=O)NCC(=O)N/N=C/c2cc(Br)ccc2OC)cc1,inactive: 9.16%
7,Cc1noc(C)c1C(=O)N1CCC1(C)C(=O)NS(=O)(=O)Cc1cccc(Cl)c1 (stereo not drawn),inactive: 4.02%
8,O=C(CC1C(=O)NCCN1CC(c1ccccc1)c1ccccc1)NCCc1cn[nH]c1 (stereo not drawn),inactive: 16.7%
9,CCOc1ncccc1C(=O)OCC(=O)Nc1ccc(Cl)cn1,inactive: 29.1%
10,CCN(CC(=O)NC1CCCC1)S(=O)(=O)c1ccc(Br)cc1,inactive: -11.7%
11,O=C1C2C(c3ccccc3)C=CC(c3ccccc3)C2C(=O)N1c1cccnc1 (stereo not drawn),inactive: 7.58%
12,Cc1cc(NC(=O)C2CC(=O)N(c3cccc(Cl)c3)C2)no1 (stereo not drawn),inactive: 4.44%
13,Nc1ccc(S(=O)(=O)Nc2nccc(/C=C/c3ccc(Cl)cc3Cl)n2)cc1,inactive: -19.3%
14,COc1ccc(/C=N/NC(=O)c2cccnc2)cc1COc1ccc(NC(C)=O)cc1,inactive: 10.4%
15,NC(=O)c1cc(-c2ccccc2)sc1NC(=O)CN1CCCCC1,inactive: 1.43%
16,COc1ccccc1C1(O)C(=O)Nc2ccccc21 (stereo not drawn),inactive: -1.26%
17,CCn1ccnc1CN(C)Cc1cn[nH]c1-c1ccc(F)cc1F,inactive: -7.42%
18,O=C(CCl)NCCN1C(=O)S/C(=C\c2cccnc2)C1=O,inactive: -13.9%
19,CC(=O)OC(C(=O)NC1CCCCC1)c1ccccc1F (stereo not drawn),inactive: 0.491%
20,CCN(CC)S(=O)(=O)c1ccc2oc(SCc3ccc(F)cc3)nc2c1,inactive: -3.52%
21,O=C(NC1CCCCC1)c1cccnc1Sc1ccccc1Cl,inactive: 16.9%
22,Clc1ccc(-c2nc(NCCCN3CCOCC3)c3ccccc3n2)cc1,inactive: 9.08%

row,Structure (SMILES),growth rescue (activation)
1,O=C(N/N=C/c1ccc(O)c(O)c1)N/N=C/c1ccc(O)c(O)c1,inactive: -11.6%
2,CC(=O)Nc1ccc(N(C(=O)Cc2cccs2)C(C(=O)NC2CCCC2)c2ccncc2)cc1 (stereo not drawn),inactive: 4.14%
3,CCCc1ccc(-c2cc(C(=O)NC3=NCCS3)c3ccccc3n2)cc1,inactive: 5.88%
4,COc1cc2c(cc1OC)CN(C1CCC(C(C)(C)C)CC1)CC2 (stereo not drawn),inactive: -11.2%
5,Cc1ccc(-n2c(SCC(=O)O)nc3sc4c(c3c2=O)CCCC4)cc1,inactive: 5.95%
6,O=C(CN1C(=O)NC2(CCCC2)C1=O)Nc1ccc(Cl)cc1F,inactive: 5.9%
7,NC(CCC(=O)O)C12CC3CC(CC(C3)C1)C2 (stereo not drawn),inactive: 0.76%
8,Nc1nnc(SCc2cn3cc(Cl)ccc3n2)s1,inactive: 10.4%
9,CC(C)Cn1cc(-c2cncc3nccn23)cn1,inactive: 6.26%
10,O=C(CCc1nnc(C2(c3ccc(Cl)cc3)CCC2)o1)NC1CC1,inactive: 10.2%
11,CCC1CCCCN1CCCNC(=O)c1ccc2c(c1)N(Cc1ccccc1)C(=O)c1ccccc1S2(=O)=O (stereo not drawn),inactive: 10.8%
12,Cc1ccc(CN(CC(=O)NC(C)(C)C)C(=O)CNC(=O)c2cccs2)cc1,inactive: 2.26%
13,CCC(CC)NC(=O)/C=C/c1ccccc1Cl,inactive: -31.9%
14,CCc1ccc(NC(=O)c2cnn3c(C(F)F)cc(C)nc23)cc1,inactive: 17.1%
15,CNCCCOc1ccc(Cl)cc1C(C)(C)C,inactive: 1.67%
16,Cc1nc2ccccc2c(=O)n1NC(=O)/C=C/c1ccccc1,inactive: 2.49%
17,N#Cc1cnc(SCC(=O)NNC(=O)COc2cccc3ccccc23)nc1N,inactive: 4.74%
18,COc1cc(/C=C2/SC(=S)N(C)C2=O)ccc1OC(=O)c1ccco1,inactive: 7.83%
19,CC(C)OC(=O)c1cn(-c2ccccc2)nc1-c1ccco1,inactive: 29.4%
20,O=C(COc1ccccc1)NC(=S)Nc1ccc2c(c1)Cc1ccccc1-2,inactive: 5.78%
21,CN(C)N=Nc1ccc(S(N)(=O)=O)cc1,inactive: 4.48%
22,O=C(Nn1c(-c2ccc(F)cc2)nc2ccccc2c1=O)c1cccnc1,inactive: -14.5%

row,Structure (SMILES),growth rescue (activation)
1,CN(C)C(=O)CN1CCN(c2nc3nonc3nc2N2CCCCC2)CC1,inactive: -11%
2,O=C(Cn1nc(-c2cccc([N+](=O)[O-])c2)c2ccccc2c1=O)NCC1CCCO1 (stereo not drawn),inactive: -1.16%
3,CCc1cccc(NC(=O)C(NC(=O)C2CCCCC2)C(C)C)c1 (stereo not drawn),inactive: -14.9%
4,O=C(COc1nc2ccccc2nc1N1CCOCC1)NCC(F)(F)F,inactive: -5.92%
5,COc1ccc(N(C)S(=O)(=O)c2cccc(C(=O)Nc3ccc4c(c3)OCCO4)c2)cc1,inactive: 11.7%
6,Cc1cc(C)cc(N2CC(C(=O)Nc3cc(C)on3)CC2=O)c1 (stereo not drawn),inactive: 15.2%
7,Cc1cccc(NC(=O)C2CCN(S(=O)(=O)c3c(C)noc3/C=C/c3ccco3)CC2)n1,inactive: -6.55%
8,CN1CCc2nc(NC(=O)COc3ccc4ccccc4c3)sc2C1,inactive: 1.38%
9,CCN(CC)S(=O)(=O)c1ccc(N/N=C/c2cc(OC)ccc2O)nc1,inactive: -6.6%
10,Cc1[nH]c2ccccc2c1C(C[N+](=O)[O-])c1ccco1 (stereo not drawn),inactive: 15.4%
11,c1cc(CNC2C3CC4CC(C3)CC2C4)ccn1 (stereo not drawn),inactive: -11.8%
12,COc1cccc(-c2noc(-c3cccnc3)n2)c1,inactive: 34.8%
13,Cc1cc(C)nc(-n2nc(C)cc2NC(=O)c2ccc(F)cc2F)n1,inactive: 13.7%
14,COc1ccc(NC(=O)CSc2nnc(CNc3ccc(C)cc3)n2C)cc1,inactive: -3.79%
15,Cc1ccc(N(CC(=O)NCc2ccco2)C(=O)CCC(=O)Nc2nccs2)c(C)c1,inactive: 11.6%
16,CCOC(=O)c1cnc2c(cnn2C)c1NCc1ccc(OC)cc1,inactive: 11%
17,Cc1nn(CCO)c2ncc(C(=O)c3cc(Cl)ccc3O)cc12,inactive: 12%
18,Cc1ccc(NC(=O)Cc2c(Cl)cccc2Cl)cc1S(=O)(=O)N(C)C,inactive: 8.83%
19,CC(=O)COc1ncnc2c(Cl)cc(Cl)cc12,inactive: 9.8%
20,CCNC(=O)C1(C)CCCN(C(=O)c2sccc2C)C1 (stereo not drawn),inactive: 8.59%

# Source: PubChem BioAssay AID1347073 (National Center for Advancing Translational Sciences (NCATS), 2019)
